Laboratory results reported in PubChem BioAssay AID602292 (National Center for Advancing Translational Sciences (NCATS), 2012).
Among all 1,300 compounds or so, about 380 (29%) were called active. This list was built around the results that the source calls inconclusive (neither active nor inactive); the mix of calls is not that of the screen. The call rests on the fitted dose curve; in most records, active means well fitted inhibition curve with a large enough effect; inconclusive means small, poorly fitted or top-dose-only effect; inactive means flat fitted curve, though single readings scatter. No potency is given beside an inconclusive call; the fits are too rough.

molecular target: Thyrotropin receptor (Homo sapiens) (UniProt P16473); experiment: qHTS for antagonists of the Thyroid Stimulation Hormone Receptor: Hit Validation in Primary Screen; conditions: TSHR-expressing cells, cAMP antagonist mode; series mostly up to 58 µM; further: nearly all actives have a fitted effect of over 80% in size
Method in brief: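 Competitive HTRF detected cAMP in lysates of TSHR cells, read 30 minutes after antibody and d2 addition at room temperature. Before lysis, cells had 2 hours at 37 deg C with compound plus EC80 TSH, 4nM final.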
Potency means the concentration at half of the fitted maximal effect; tags describe the fitted curve by direction and shape.

Sequence of UniProt P16473 (P16473 whole entry, looked up): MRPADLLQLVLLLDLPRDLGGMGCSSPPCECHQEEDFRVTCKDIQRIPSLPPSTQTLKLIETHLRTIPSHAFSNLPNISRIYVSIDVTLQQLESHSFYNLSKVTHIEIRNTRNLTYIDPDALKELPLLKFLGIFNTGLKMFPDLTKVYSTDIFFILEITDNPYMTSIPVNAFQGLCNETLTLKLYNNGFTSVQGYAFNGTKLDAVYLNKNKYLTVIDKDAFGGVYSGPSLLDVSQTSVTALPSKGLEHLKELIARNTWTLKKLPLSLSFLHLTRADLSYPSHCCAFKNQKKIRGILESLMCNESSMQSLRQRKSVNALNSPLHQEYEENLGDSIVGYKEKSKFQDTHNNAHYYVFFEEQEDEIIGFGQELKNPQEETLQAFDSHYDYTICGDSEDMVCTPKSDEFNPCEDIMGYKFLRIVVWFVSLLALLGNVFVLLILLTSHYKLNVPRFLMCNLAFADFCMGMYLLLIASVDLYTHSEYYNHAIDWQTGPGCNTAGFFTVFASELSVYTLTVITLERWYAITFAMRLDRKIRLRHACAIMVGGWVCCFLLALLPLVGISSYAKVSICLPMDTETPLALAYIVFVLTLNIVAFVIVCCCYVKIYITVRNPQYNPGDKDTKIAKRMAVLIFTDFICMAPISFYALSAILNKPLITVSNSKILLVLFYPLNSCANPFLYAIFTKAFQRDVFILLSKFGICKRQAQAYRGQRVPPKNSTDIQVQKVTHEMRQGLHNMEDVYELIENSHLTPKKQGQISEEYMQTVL

Compound | Potency
CN(C)S(=O)(=O)Oc1cccc(C(=O)Nc2ccc(Cl)c(Cl)c2)c1 | active: 26.9 µM
CCOc1cc(C(=O)NC2CC(C)(C)NC(C)(C)C2)cc(OCC)c1OCC | inactive
CCCOc1ccc(CSc2nc3ccccc3[nH]2)cc1 | inconclusive [inhibitor, partial curve]
COc1ccc(C(NC(=O)c2c(F)c(F)c(F)c(F)c2F)c2ccccc2)cc1 (stereo not given) | active: 26.9 µM
COC(=O)c1sc(-c2ccc(C(C)(C)C)cc2)cc1NC(=O)/C=C/C(=O)O | active: 26.9 µM
O=[N+]([O-])c1ccc(O)c(/C=N/NC(=S)Nc2ccc(Cl)cc2Cl)c1 | inconclusive [inhibitor, partial curve]
CCCCC(=O)N1CCN(c2nc3ccc(Br)cc3s2)CC1 | inconclusive [inhibitor, partial curve]
CN(CC(=O)Nc1ccccc1Cl)C(=O)COC(=O)c1nc(Cl)c(Cl)c(Cl)c1Cl | inconclusive [inhibitor, partial curve]
O=C(CCc1nnc2n(Cc3ccc(Cl)cc3)c(=O)c3ccccc3n12)N1CCN(c2ccccn2)CC1 | inconclusive [inhibitor, partial curve, poor fit]
Cc1ccc(NC(=O)COc2cccc3c2OC(C)(C)C3)c(O)c1 | inconclusive [inhibitor, partial curve, poor fit]
O=S(=O)(Cc1cc(Cl)nc(-c2cccnc2)n1)c1ccccc1 | inconclusive [inhibitor, partial curve]
Cc1ccccc1NC1c2ccccc2C(=O)N1Cc1ccco1 (stereo not given) | inconclusive [inhibitor, partial curve]
O=C(CSc1nc2cc(Cl)c(Cl)cc2[nH]1)c1ccc2c(c1)OCO2 | inconclusive [inhibitor, partial curve, poor fit]
CC(C)c1nnc(NC(=O)c2nc(S(=O)(=O)Cc3ccccc3F)ncc2Cl)s1 | inconclusive [inhibitor, partial curve]
Cc1ccc(-n2[nH]c(C)c(/C=N/Nc3ccc([N+](=O)[O-])cc3[N+](=O)[O-])c2=O)cc1C | active: 2.39 µM
Cc1ccc2c(CN3CCN(S(=O)(=O)c4ccc5c(c4)OCCO5)CC3)cc(=O)oc2c1C | inconclusive [inhibitor, partial curve, poor fit]
CCN(CC)S(=O)(=O)c1ccc(Oc2ccc(S(=O)(=O)N(CC)CC)cc2)cc1 | inconclusive [inhibitor, partial curve]
Cc1cc(/C=N/n2c(COc3ccccc3C)nc3ccccc3c2=O)c(O)c([N+](=O)[O-])c1 | inconclusive [inhibitor, partial curve]
COCCNc1oc(Cc2cccc3ccccc23)nc1C#N | inactive
Cc1ccc(C(=O)C2=C(O)C(=O)N(c3ncccn3)C2c2ccccc2F)o1 (stereo not given) | inconclusive [inhibitor, partial curve, poor fit]
COc1ccc(OC)c(NC(=O)c2nc(S(=O)(=O)Cc3ccccc3)ncc2Cl)c1 | inconclusive [inhibitor, partial curve]
CC(c1nnnn1C1CCCCC1)N(Cc1ccccc1)Cc1cccnc1 (stereo not given) | inconclusive [inhibitor, partial curve, poor fit]

Compound | Potency
CCOC(=O)COc1ccc(S(=O)(=O)NCCC2=CCCCC2)cc1 | inconclusive [inhibitor, partial curve, poor fit]
O=C(NC1C2CC3CC(C2)CC1C3)c1ccc2c(c1)OCO2 (stereo not given) | inconclusive [inhibitor, partial curve, poor fit]
Cc1nc2ncnn2c(N2CCCC(C(=O)Nc3ccccc3Br)C2)c1C (stereo not given) | inconclusive [inhibitor, partial curve, poor fit]
O=C(OCCc1cc2ccccc2c(=O)o1)c1ccccc1C(F)(F)F | inconclusive [inhibitor, partial curve]
COC(=O)c1ccc(COc2cc(O)c3c(c2)OC(C)(C)CC3=O)cc1 | active: 30.1 µM
Cc1ccc2nc(-c3ccc(NC(=O)c4cccnc4)cc3)oc2c1 | inconclusive [inhibitor, partial curve, poor fit]
Clc1cc(Cl)c(OCc2nc(-c3ccccn3)no2)cc1Cl | inconclusive [inhibitor, partial curve]
CN(C)c1ccc(NC(=S)c2ccc3ccccc3n2)cc1 | inconclusive [inhibitor, partial curve, poor fit]
N#Cc1ccc(NC(=O)Nc2ccc(Cl)cc2)cc1 | active: 7.57 µM
Cc1cccc(NC(=O)c2ccc(Cl)c(S(=O)(=O)N3CCc4ccccc43)c2)n1 | inconclusive [inhibitor, partial curve]
Cc1nc2ccc(C(=O)Nc3ccc4nc[nH]c4c3)cc2[nH]1 | inactive
COc1ccc(C)cc1-n1nnnc1SCc1cc(=O)n2cc(C)ccc2n1 | inconclusive [inhibitor, partial curve]
CCN(Cc1ccccc1)c1ccc(/C=N/NC(=O)c2cccc(S(=O)(=O)N3CCOCC3)c2)cc1 | inconclusive [inhibitor, partial curve, poor fit]
COc1cccc(C(=O)Nc2ccc(-c3nc4ccccc4o3)c(O)c2)c1 | inconclusive [inhibitor, partial curve, poor fit]
Cc1ccc2cccc(Oc3ncnc4scc(-c5ccccc5)c34)c2n1 | inconclusive [inhibitor, partial curve]
C=CC[C@H](CC(=O)N(CCO)Cc1ccccc1)C(=O)N[C@H](COC(=O)[C@@H](CC=C)Cc1ccc(F)cc1)C(C)(C)C | inconclusive [inhibitor, partial curve]
Cc1cc(NC(=O)c2ccccc2)c(Cl)cc1N | inactive
COc1ccc(CCNC2=C(Cl)C(=O)N(CCc3ccccc3)C2=O)cc1OC | active: 26.9 µM
CCC1Sc2ccc(S(=O)(=O)Nc3ccc(OC)c(OC)c3)cc2NC1=O (stereo not given) | inconclusive [inhibitor, partial curve]
CC(=O)c1c(C)[nH]c(C(=O)COc2cc(C)ccc2C(C)C)c1C | inconclusive [inhibitor, partial curve]
CCOC(=O)c1sc(NC(=O)c2cc(-c3ccccc3C)nc3ccccc23)c(C#N)c1C | inconclusive [inhibitor, full curve, poor fit]
COc1ccccc1NC(=O)NNC(=O)CCN1CCOCC1 | inactive

Compound | Potency
C=CS(=O)(=O)c1sc(Cl)c(N2CCOCC2)c1[N+](=O)[O-] | active: 26.9 µM
CC1=N/C(=C\c2ccc([N+](=O)[O-])cc2)C(=O)N1c1ccc(Cl)cc1 | inactive
Cc1ccc(-c2cnc(C3CC3)o2)cc1S(=O)(=O)Nc1ccccc1 | active: 30.1 µM
Cc1cccc(NC(=O)C2C3CCC4C(CCC32)C4(Cl)Cl)c1 (stereo not given) | inconclusive [inhibitor, partial curve, poor fit]
O=c1[nH]c(C2CCN(S(=O)(=O)c3cccc(Cl)c3)CC2)nc2c1nnn2Cc1ccccc1 | inactive
CC(=O)Nc1ccc(S(=O)(=O)Nc2c(NC3CCCCC3)c3ccccc3oc2=O)cc1 | inactive
O=Cc1c[nH]c2ccc(C(=O)c3ccccc3)cc12 | inconclusive [inhibitor, partial curve, poor fit]
CCN(C(=O)c1cc2c(=O)n3ccccc3nc2n1C)C1CCCCC1 | inactive
CCOC(=O)c1c(NC(=O)/C=C/C(=O)O)sc(C)c1-c1ccc(F)cc1 | inconclusive [inhibitor, partial curve]
COc1ccccc1NS(=O)(=O)c1ccc2oc(SCc3ccc(F)cc3)nc2c1 | inconclusive [inhibitor, partial curve, poor fit]
Cc1ccc2oc(C(=O)N3CCCCCC3)c(C)c2c1 | inconclusive [inhibitor, partial curve, poor fit]
O=C(Nc1ccccc1Cl)/C(Cl)=C(\Cl)S(=O)c1ccccc1 (stereo not given) | active: 26.9 µM
CCc1ccc(/C=C/C(=O)c2cc(Br)ccc(=O)c2O)cc1 | active: 9.53 µM
Cc1cc(=O)oc2ccc(OCc3ccccc3)cc12 | inactive
Cc1[nH]c2ccccc2c1/C=C/c1cc[n+](C)cc1 | inconclusive [inhibitor, partial curve]
O=c1c2ccccc2nnn1CSc1nnc(-c2cccs2)n1Cc1ccccc1 | inconclusive [inhibitor, partial curve]
Cc1ccc(C)c(N2CCN(S(=O)(=O)c3ccc4c(c3)CC(C)N4C(=O)C3CC3)CC2)c1 (stereo not given) | inactive
N#Cc1ccc(C(=O)Nc2nc(-c3cccs3)c(C(=O)C(F)(F)F)s2)cc1 | active: 6.01 µM
Cc1ccc(C)c(C(=O)OCC(=O)Nc2cccc(S(=O)(=O)N3CCCCC3)c2)c1 | inconclusive [inhibitor, partial curve]
N#CC(C#N)=C1C=CC=CN1/C(=C\c1ccco1)C(=O)c1ccc(Cl)cc1 | inconclusive [inhibitor, partial curve]
O=c1[nH]nc(Cc2ccc(-c3cccc(Cl)c3)o2)c2ccccc12 | inconclusive [inhibitor, partial curve]
